From PubChem BioAssay AID1508642 (National Center for Advancing Translational Sciences (NCATS), 2021)
Among all 43,000 compounds or so, about 200 (0.47%) were called active. Not shown: some 12% with an inconclusive outcome. Calls follow the shape of the dose curve; as a rule, active = well fitted cell-killing curve with a large enough effect; inconclusive = small, poorly fitted or top-dose-only effect, or effect the other way; inactive = flat fitted curve, though single readings scatter. Some of the results follow.

assay: Cell viability qHTS assay in S16 Pmp22-F2sN cells; conditions: S16 Pmp22-F2sN Schwann cells viability, CellTiter-Glo, 24 h; series mostly up to 57.5 µM; activity change, negative = cytotoxicity: at the top concentration; also: nearly all actives have a fitted effect of over 65% in size
Procedure, shortened: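 S16 Pmp22-F2sN Schwann cells (500-1,000/well) in phenol-red-free DMEM with 10% FBS received 23 nL compound by pin tool for 24 h at 37 °C. Viability was then read as CellTiter-Glo luminescence after 15 min at room temperature.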
% is scaled to controls: 0 for no effect and ±100 for the full control effect.

Compound | activity change, negative = cytotoxicity
COc1ccccc1/C=C/C(=O)Nc1nc2n(n1)C(c1ccc(F)cc1)C=C(c1ccccc1)N2 (stereo unspecified) | inactive: 1.15%
Cc1ccc(OCCn2c(C3CC(=O)N(Cc4ccc(F)cc4)C3)nc3ccccc32)c(C)c1 (stereo unspecified) | inactive: -1.24%
Cc1cc(C)cc(-n2ccnc2SCC(=O)Nc2ccccc2F)c1 | inactive: -0.59%
Cc1cccc(NC(=O)c2c(NC(=O)c3ccccc3)sc3c2CCC3)c1 | inactive: 1.96%
COc1ccc(C(=O)c2cn(Cc3ccccc3OC)c3cc4c(cc3c2=O)OCO4)cc1 | inactive: -1.95%
COc1ccc(CNC(=O)Cn2cccc2C(=O)c2ccccc2C)cc1 | inactive: 2.03%
Cc1cccc(N2CCN(c3nc4ccccc4c4nnc(C)n34)CC2)c1C | inactive: 3.15%
CCN(CC)C(=O)c1sc2c(c1C)c(=O)n(-c1ccc(OC)cc1OC)c(=O)n2CC(=O)Nc1ccccc1 | inactive: -13.6%
COC(=O)c1ccc(NC(=O)CC2C(=O)N(c3ccccc3)C(=O)N2Cc2cccs2)cc1 (stereo unspecified) | inactive: 22.2%
Cc1cccc(-n2ncc3c(NNC(=O)c4ccccc4Cl)ncnc32)c1 | inactive: 5.53%
COc1ccc(-c2ccc(=O)n(CC(=O)Nc3cc(OC)ccc3OC)n2)cc1 | inactive: -6.99%
O=c1[nH]c(C2CCCN(S(=O)(=O)c3ccccc3)C2)nc2c1nnn2Cc1ccccc1Br (stereo unspecified) | inactive: 15.8%
CCOC(=O)c1cccc(NC(=O)Nc2c(C)n(C)n(-c3ccccc3)c2=O)c1 | inactive: -9.97%
COc1ccc(CNC(=O)c2cc(-c3ccc(Br)s3)nc3ccccc23)cc1 | inactive: -3.86%
Cc1ccc(C)c(Nc2nn3c(=O)c4ccc(C(=O)NCc5ccccc5)cc4nc3s2)c1 | inactive: 21.7%
O=C(CN1C(=O)COc2ccc(S(=O)(=O)N3CCCCCC3)cc21)N1CCN(c2ccc(Cl)cc2)CC1 | inactive: -2.91%
CCOC(=O)c1ccc(NC(=O)CC(C)n2nc(C)cc2C)cc1 (stereo unspecified) | inactive: -15.9%
COc1cc(NC(=O)Cc2noc3ccccc23)cc(OC)c1OC | inactive: -6.65%
CCS(=O)(=O)NCCc1csc2nc(-c3ccc(OC)cc3)nn12 | inactive: 0.669%
COc1ccc(OC)c(S(=O)(=O)NCCS(=O)(=O)N2CCN(c3ccccc3F)CC2)c1 | inactive: -6.97%
CCc1cnc2c(c1SCc1cc(OC)cc(OC)c1)c(=O)n(C)c(=O)n2C | inactive: 2.9%
Cc1ccc(C)c(CN2C(=O)c3ccccc3S(=O)c3ccc(C(=O)N4CCCCC4)cc32)c1 (stereo unspecified) | inactive: 3.4%
Cc1cccc(C)c1NC(=O)Cn1cc(C(=O)C2CC2)c2ccccc21 | inactive: -12.8%
Cc1nn(CCC(=O)Nc2cccc(C#N)c2)c(C)c1S(=O)(=O)N1CCCCC1 | inactive: -16.9%
COc1cccc(C(=O)Nc2nnc(S(=O)(=O)N3CCCc4ccccc43)s2)c1 | inactive: 4.07%
CCCCN(CC)CCCNC(=O)c1cn(C)c(=O)c2c1c1ccccc1n2C | inactive: 4.89%
